Hit rate of the full screen: of about 39,000 compounds, about 220 (0.56%) showed activity. The list shows a part of the results.
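Further: static incubation at 37 °C against the wild-type strain, values averaged over two biological replicates.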

The test deals with Escherichia coli K-12 BW25113. Briefly: relative growth (OD600 normalised to plate interquartile mean) (fraction); higher = less growth inhibition, active = 0.2 or less. Particulars: 50 µM; LB; incubation time: overnight (16-24 h).
As to `C[C@@H]1CCCCO[C@H](CN(C)S(=O)(=O)c2ccc(F)cc2)[C@@H](C)CN([C@@H](C)CO)C(=O)c2cc(NC(=O)Nc3ccc4c(c3)OCO4)ccc2O1`, the relative growth was inactive: 1.05. The figure for `Cc1ccc(S(=O)(=O)Nc2ccc3c(c2)C(=O)N([C@H](C)CO)C[C@H](C)[C@H](CN(C)C(=O)Nc2ccc4c(c2)OCO4)OCCCC[C@H](C)O3)cc1` is inactive: 1.01; for `CC(C)C#Cc1ccc2c(c1)O[C@H](CN(C)C(=O)c1cccc(F)c1)[C@H](C)CN([C@@H](C)CO)S2(=O)=O` it is inactive: 1.01; for `CCS(=O)(=O)Nc1ccc2c(c1)C(=O)N(C)[C@@H]1CC[C@@H](CC(=O)N[C@H]3CCN(Cc4ccccc4)C3)O[C@@H]1CO2` it is inactive: 1.01. Regarding `C[C@@H]1CN([C@@H](C)CO)C(=O)c2cc(NC(=O)Nc3cccc4ccccc34)ccc2O[C@@H](C)CCCCO[C@H]1CN(C)Cc1ccc(Cl)c(Cl)c1`, the relative growth was inactive: 1.02. As to `COc1c(O[C@@H]2O[C@H](CO)[C@@H](O)[C@H](O)[C@H]2O)cc2c(c1OC)-c1ccc(SC)c(=O)cc1[C@@H](NC(C)=O)CC2`, the relative growth is inactive: 0.751. As for `COc1ccc(CN(C)C[C@H]2OCCCC[C@H](C)Oc3ccc(NC(=O)Nc4ccc(OC)cc4)cc3C(=O)N([C@H](C)CO)C[C@@H]2C)cc1`, the relative growth is inactive: 0.992. In the case of `COc1ccc(NC(=O)N(C)C[C@H]2OCCCC[C@H](C)Oc3ccc(NC(=O)Nc4ccc5c(c4)OCO5)cc3C(=O)N([C@@H](C)CO)C[C@@H]2C)cc1` it was inactive: 1.01; in that of `C[C@H]1CN([C@@H](C)CO)C(=O)c2cccc(NC(=O)Nc3cccc4ccccc34)c2O[C@@H]1CN(C)C(=O)Nc1ccc(F)cc1`, inactive: 0.986; in that of `COc1ccc(CN(C)C[C@H]2OCCCC[C@@H](C)Oc3ccc(NC(=O)C4CCCCC4)cc3C(=O)N([C@H](C)CO)C[C@@H]2C)cc1`, inactive: 0.989. Consider `Clc1ccc(-c2csc(-c3ccc4c(c3)CCO4)n2)s1`, for which the relative growth was inactive: 0.993. Regarding `Cc1cc(=O)[nH][nH]1`, the relative growth was inactive: 0.995. The figure for `Cc1noc(C)c1NC(=O)N(C)C[C@@H]1OCCCC[C@H](C)Oc2ccc(NC(=O)C3CCCCC3)cc2C(=O)N([C@H](C)CO)C[C@@H]1C` is inactive: 0.997; for `Cc1noc(C)c1NC(=O)Nc1cccc2c1O[C@H](CN(C)Cc1ccc(-c3ccccc3)cc1)[C@H](C)CN([C@H](C)CO)C2=O` it is inactive: 0.984. In the case of `CN1CCN(C(=O)Cn2cc(-c3ccc(C(=O)NO)cc3)nn2)CC1` it was inactive: 0.989.

For the molecule `C[C@H](CO)N1C[C@H](C)[C@@H](CN(C)C(=O)Nc2cccc3ccccc23)OCCCC[C@H](C)Oc2ccc(NC(=O)Nc3ccc(C(F)(F)F)cc3)cc2C1=O`, the relative growth is inactive: 1.04.

As for `COCCCNC(=O)[C@@]1(Cc2ccccc2N=[N+]=[N-])N=C(c2ccc(OCCCO)cc2)O[C@H]1c1ccccc1`, the relative growth was inactive: 1.02.

`C[C@@H]1CN([C@@H](C)CO)C(=O)c2cc(NS(C)(=O)=O)ccc2O[C@H]1CN(C)C(=O)NC1CCCCC1`: the relative growth was inactive: 0.927.

`C[C@@H]1CN([C@H](C)CO)C(=O)c2cc(NC(=O)Nc3ccc4c(c3)OCO4)ccc2O[C@H]1CN(C)Cc1ccc(Oc2ccccc2)cc1`: the relative growth is inactive: 1.01. For the molecule `NCCn1cccn1`, the relative growth was inactive: 1.01. As for `COC(=O)[C@@H](NC(=O)c1cccc(NC=O)c1O)[C@@H](C)O`, the relative growth is inactive: 1.04.

Regarding `C[C@@H](C(=O)N(C)C[C@H]1OCc2ccccc2-c2c(n(C)c3ccccc23)C(=O)N([C@@H](C)CO)C[C@@H]1C)c1ccccc1`, the relative growth is inactive: 0.98.

Turning to `C[C@@H]1CCCCO[C@H](CN(C)S(=O)(=O)c2cn(C)cn2)[C@@H](C)CN([C@H](C)CO)C(=O)c2cc(NS(=O)(=O)c3cccs3)ccc2O1`, the relative growth is inactive: 1.02. In the case of `COCC#Cc1cnc2c(c1)C(=O)N([C@@H](C)CO)C[C@@H](C)[C@@H](CN(C)C(=O)Nc1ccccc1OC)O2` it was inactive: 0.997. The figure for `Nc1cc(=O)nc(C(F)(F)F)[nH]1` is inactive: 0.999; for `C[C@@H]1CNC[C@H](C)N1` it is inactive: 0.99. The figure for `COC(=O)C1(C)CCCC2(C)c3ccc(O)c(C(C)C)c3CCC12` (stereo not drawn) is inactive: 0.951. With `Cc1ccc(S(=O)(=O)N2C[C@H](O)COC[C@H]3O[C@@H](CC(=O)N[C@@H]4CCN(Cc5ccccc5)C4)CC[C@@H]32)cc1`, the relative growth was inactive: 0.997. In the case of `COc1ccc(S(=O)(=O)N(C)C[C@@H]2Oc3c(NC(=O)C4CCOCC4)cccc3C(=O)N([C@H](C)CO)C[C@H]2C)cc1` it was inactive: 1.03; in that of `O=c1nc(Nc2ccccc2)[nH]c(=O)[nH]1`, inactive: 0.961; in that of `Cc1ccc(-c2ccc3c(c2)O[C@H](CN(C)C(=O)NC(C)C)[C@H](C)CN([C@@H](C)CO)S3(=O)=O)cc1`, inactive: 1.01. The figure for `C[C@@H]1CN([C@@H](C)CO)C(=O)c2cc(NC(=O)CCN3CCOCC3)ccc2O[C@H]1CN(C)C(=O)NC1CCCCC1` is inactive: 0.974.

On to `Cn1cnc(S(=O)(=O)N2C[C@@H](O)COC[C@@H]3O[C@H](CC(=O)NC4Cc5ccccc5C4)CC[C@H]32)c1`, for which the relative growth was inactive: 0.996. In the case of `Cc1ccc(S(=O)(=O)Nc2ccc3c(c2)C(=O)N([C@@H](C)CO)C[C@H](C)[C@@H](CN(C)Cc2ccc(Cl)c(Cl)c2)OCCCC[C@@H](C)O3)cc1` it was inactive: 0.964. In the case of `C[C@H](CO)N1C[C@H](C)[C@H](CN(C)Cc2ccc(Cl)c(Cl)c2)Oc2c(NC(=O)Nc3ccc(F)cc3)cccc2C1=O` it was inactive: 1.02; in that of `Cc1nsc(C(=O)NC[C@H]2CCCO2)n1`, inactive: 1.02; in that of `C[C@@H]1CN([C@H](C)CO)C(=O)c2c(c3ccccc3n2C)-c2ccccc2CO[C@@H]1CN(C)Cc1ccc(F)cc1`, inactive: 0.962.

On to `COc1ccc(S(=O)(=O)N(C)C[C@H]2Oc3ccc(NC(=O)Nc4c(C)noc4C)cc3C(=O)N([C@H](C)CO)C[C@@H]2C)cc1`, for which the relative growth is inactive: 0.984. The figure for `O=C(C[C@H]1CC[C@@H]2[C@H](COC[C@@H](O)CN2S(=O)(=O)c2ccc(Cl)cc2)O1)N[C@H]1CCN(Cc2ccccc2)C1` is inactive: 1.

`C[C@H]1CN([C@@H](C)CO)C(=O)CCCn2nncc2CO[C@@H]1CN(C)C(=O)Nc1cccc(C(F)(F)F)c1`: the relative growth was inactive: 0.979.

Turning to `O=C(C[C@@H]1C[C@@H]2c3cc(NC(=O)Cc4ccncc4)ccc3O[C@@H]2[C@H](CO)O1)NCc1cc(F)ccc1F`, the relative growth was inactive: 1.01. For the molecule `O=C(CCCCCNC(=O)OCCCCO[C@@H]1C[C@H](c2ccc(Br)cc2)C=C(C(=O)N2CCN(Cc3ccccc3)CC2)O1)NO`, the relative growth is inactive: 1.

As to `O=C(NO)c1cccc(C(=O)N/N=C/[C@H](O)[C@@H](O)[C@@H](O)[C@H](O)CO)c1`, the relative growth was inactive: 0.995. Take `Cc1ccc(S(=O)(=O)N[C@@H](Cc2ccccc2)C(=O)NCCn2cc(-c3ccccc3N)nn2)cc1`: the relative growth was inactive: 0.998. The figure for `C[C@@H]1CN([C@H](C)CO)C(=O)c2cc(NC(=O)Nc3ccc(C(F)(F)F)cc3)ccc2O[C@@H](C)CCCCO[C@@H]1CN(C)C(=O)Cc1ccccc1` is inactive: 0.997. The figure for `C[C@@H]1CN([C@H](C)CO)C(=O)Cc2cc(NS(=O)(=O)c3ccc(Cl)cc3)ccc2O[C@@H]1CN(C)Cc1ccc(C(=O)Nc2ccccc2N)cc1` is inactive: 1.02; for `C[C@H](CO)N1C[C@H](C)[C@H](CN(C)C(=O)Cc2ccccc2)OCCCC[C@H](C)Oc2ccc(NC(=O)Nc3ccc(F)cc3)cc2C1=O` it is inactive: 1. The figure for `CC1(C)NC(=O)N(c2ccc([N+](=O)[O-])c(C(F)(F)F)c2)C1=O` is inactive: 1.18. Consider `O=C(C[C@H]1CC[C@@H]2[C@H](COC[C@H](O)CN2S(=O)(=O)c2cccc(Cl)c2)O1)N1CCOCC1`, for which the relative growth is inactive: 1.05.

In the case of `C[C@H](CO)N1C[C@H](C)[C@H](CN(C)Cc2ccncc2)OCCCC[C@H](C)Oc2ccc(NC(=O)Nc3ccccc3)cc2C1=O`, the relative growth was inactive: 0.97. In the case of `CCCCCCc1ccc(O)cc1O` it was inactive: 0.473; in that of `C[C@H]1CN([C@@H](C)CO)C(=O)c2cc(NC(=O)c3ccncc3)ccc2O[C@@H]1CN(C)Cc1ccc2c(c1)OCO2`, inactive: 0.988; in that of `C[C@@H]1CN([C@H](C)CO)S(=O)(=O)c2ccc(C3=CCCC3)cc2O[C@@H]1CN(C)C(=O)Cc1ccncc1`, inactive: 1. For the molecule `COc1ccc(S(=O)(=O)Nc2ccc3c(c2)C(=O)N([C@@H](C)CO)C[C@H](C)[C@H](CN(C)Cc2ccc(C(=O)O)cc2)OCCCC[C@H](C)O3)cc1`, the relative growth was inactive: 1. The figure for `O=C(C[C@@H]1C[C@@H]2c3cc(NS(=O)(=O)c4ccc(F)cc4)ccc3O[C@@H]2[C@H](CO)O1)N1CCCCC1` is inactive: 1.02; for `C[C@@H](N)c1ccc(F)cc1F` it is inactive: 1.04.

Regarding `COc1ccc(NC(=O)N(C)C[C@@H]2Oc3ccc(NC(=O)Cn4cnnn4)cc3C(=O)N([C@H](C)CO)C[C@@H]2C)cc1`, the relative growth is inactive: 0.996. In the case of `OCCC1CCOCC1` it was inactive: 1.06; in that of `CC(C)(C)[S@](=O)N1Cc2cc(C(=O)N3CCCCC3)nc(-c3cccc(C4=CCCC4)c3)c2[C@@H]1CCO`, inactive: 1.03. Take `C[C@@H]1CCCCO[C@@H](CN(C)Cc2ccc(C(F)(F)F)cc2)[C@H](C)CN([C@H](C)CO)C(=O)c2cc(NC(=O)NC3CCCCC3)ccc2O1`: the relative growth is inactive: 0.967. The figure for `O=C(CN1CCOCC1)NCC[C@H]1CC[C@H](NC(=O)c2ccccc2F)[C@H](CO)O1` is inactive: 0.985. The figure for `CC(C)N1C[C@@H](CNCc2ccc(Oc3ccccc3)cc2)Oc2c(NC(=O)c3ccncc3)cccc2C1=O` is inactive: 1.01; for `C[C@@H]1CN([C@@H](C)CO)C(=O)CCCn2nncc2CO[C@@H]1CN(C)S(=O)(=O)c1ccc(-n2cccn2)cc1` it is inactive: 0.987.

(Values after the supplement of paper PMC9446081.)
